Assay results reported in PMC4336329 (PLoS ONE, 2015).
In all, about 310,000 compounds went through this assay and about 14,000 (4.5%) showed an effect of 50% or more. Effects have a minus sign here. The list shows a part of the results.

biological target: human ether-à-go-go-related gene (hERG) potassium channel (human, UniProt Q12809); experiment: primary screen, population patch clamp on CHO cells stably expressing hERG
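Note: peak tail current of the secondary pulse compared with the same well before compound.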

human ether-à-go-go-related gene (hERG) potassium channel, sequence (Q12809 whole entry, looked up): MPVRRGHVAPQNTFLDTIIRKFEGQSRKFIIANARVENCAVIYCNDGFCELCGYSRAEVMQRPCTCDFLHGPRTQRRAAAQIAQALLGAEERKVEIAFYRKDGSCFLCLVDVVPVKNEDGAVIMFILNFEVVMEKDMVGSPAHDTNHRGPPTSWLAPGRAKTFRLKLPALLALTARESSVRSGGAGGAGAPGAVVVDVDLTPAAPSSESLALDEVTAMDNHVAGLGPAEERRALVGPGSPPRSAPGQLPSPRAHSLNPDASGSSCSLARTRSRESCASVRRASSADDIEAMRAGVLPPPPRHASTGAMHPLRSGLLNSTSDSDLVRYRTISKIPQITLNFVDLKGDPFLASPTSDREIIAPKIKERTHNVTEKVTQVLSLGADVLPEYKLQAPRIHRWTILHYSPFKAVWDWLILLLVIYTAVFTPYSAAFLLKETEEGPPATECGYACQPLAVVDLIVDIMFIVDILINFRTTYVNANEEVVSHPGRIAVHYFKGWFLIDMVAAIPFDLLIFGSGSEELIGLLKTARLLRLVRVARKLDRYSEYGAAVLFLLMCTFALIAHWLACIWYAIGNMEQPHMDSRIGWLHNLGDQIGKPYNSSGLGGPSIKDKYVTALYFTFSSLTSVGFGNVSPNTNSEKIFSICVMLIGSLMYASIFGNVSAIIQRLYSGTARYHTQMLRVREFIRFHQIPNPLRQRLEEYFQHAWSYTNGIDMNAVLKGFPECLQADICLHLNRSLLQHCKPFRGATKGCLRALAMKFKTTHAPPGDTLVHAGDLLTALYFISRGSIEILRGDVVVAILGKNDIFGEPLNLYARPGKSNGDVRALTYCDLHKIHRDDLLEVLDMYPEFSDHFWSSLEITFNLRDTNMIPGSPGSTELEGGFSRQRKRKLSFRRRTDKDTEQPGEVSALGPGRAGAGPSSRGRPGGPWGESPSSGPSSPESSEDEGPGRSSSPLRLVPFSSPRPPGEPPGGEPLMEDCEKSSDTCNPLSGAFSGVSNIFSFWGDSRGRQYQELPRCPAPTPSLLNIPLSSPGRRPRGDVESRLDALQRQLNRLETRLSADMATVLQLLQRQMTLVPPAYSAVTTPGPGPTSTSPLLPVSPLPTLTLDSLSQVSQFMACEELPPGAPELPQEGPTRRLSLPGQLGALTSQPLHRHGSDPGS

SMILES | hERG current change (%, negative = inhibition) at 10uM [%]
CCOC1(OCC)N=C(N)C2(C#N)C(c3cccc(OC)c3OC)C12C#N (centres unmarked) | -1.8
Clc1cccc(OCCCCN2CCCCC2)c1 | -36.6
CC(=O)Nc1cccc(NC(=O)CSc2ncc(C(=O)Nc3ccc(F)cc3)c(=O)n2C)c1 | -15.8
CCOC(=O)N1CCN(C(=S)Nc2ccc3nc(N4CCN(CC)CC4)cc(C)c3c2)CC1 | -23.5
O=C(Oc1c(CN2CCOCC2)cc(Cl)c2cccnc12)c1ccccc1Br | -9.21
CCn1c(=O)n(CC)c2cc(N3CCCC3)c(NC(=O)c3ccc(C)c([N+](=O)[O-])c3)cc21 | 9.33
O=C(CCC1CCCC1)NCc1cccs1 | 13.9
COc1ccc(OCc2nnc(SCC(=O)c3c(N)n(C)c(=O)n(C)c3=O)n2-c2ccccc2F)cc1 | 37.1
COc1cc(NC(=O)CC(C)C)ccc1NC(=O)c1ccco1 | -8.72
CCNC(=S)N1CCN(c2nc(CC)nc3sc4c(c23)CCCC4)CC1 | -15.4
O=C1CCC(C(=O)N2CCCCO2)CN1Cc1cccc(C(F)(F)F)c1 (centres unmarked) | -3.13
COc1ccc(-c2noc(CCC(=O)N3CCC(C)CC3)n2)cc1 | -21.9
CCN(CC)CCNC(=S)N1CCn2c(nc3ccccc32)C1 | -33.1
Cc1ccc(CC(=O)NC2CCSC2=O)cc1 (centres unmarked) | 15.8
COc1ccccc1N/C(=N/S(=O)(=O)c1ccc(C)cc1)c1ccc(Cl)cc1 | -47.9
O=C(NC1(C(F)(F)F)NC(=O)N(Cc2cccnc2)C1=O)c1ccncc1 (centres unmarked) | 19.6
O=C(CCN1CCOCC1)NCC(=O)Nc1ccc(Br)cc1C(=O)c1ccccc1 | -49.5
Cc1cnnn1-c1cccc([N+](=O)[O-])c1 | -9.68
Cc1ccc(-n2nc(-c3ccco3)cc2C(=O)O)cc1 | 0.414
CCOc1ccc(N2C(=O)CC(N3CCN(c4ccc(C(=O)c5ccncc5)cc4)CC3)C2=O)cc1 (centres unmarked) | -17.2
COc1cc(/C=C/C(=O)c2ccc3c(c2)OCO3)cc(Cl)c1O | -3.04
COc1ccc([N+](=O)[O-])cc1NC(=O)CN(C)S(=O)(=O)c1ccccc1 | -30.3
CCOC(=O)c1ccccc1NC(=O)COC(=O)CCNS(=O)(=O)c1ccccc1 | -3.26

SMILES | hERG current change (%, negative = inhibition) at 10uM [%]
CN1CCCC(OC(=O)c2cc(Cl)ccc2Cl)C1 (centres unmarked) | -2.55
CN(C)c1ccc(C(=O)OCC(=O)NCCNC(=O)COC(=O)c2ccc(N(C)C)cc2)cc1 | 18.5
CCN(CC(=O)Nc1c(F)cccc1F)C(=O)CCSc1ccc(F)cc1 | -7.11
O=C(NCc1cccnc1)C(=O)N/N=C/c1ccccc1[N+](=O)[O-] | -10.7
COCCNC(=O)C(=O)N/N=C/c1ccc(C(=O)OC)cc1 | 17.6
O=C(NCCSCc1ccco1)Nc1ccccc1 | 17.8
C=C/C(C)=C/CC1C(=C)CCC2C(C)(C(=O)O)CCCC12C (centres unmarked) | 9.3
CC(C)c1nnc(NC(=O)CCC(=O)Nc2ccc3cn[nH]c3c2)s1 | 9.4
Cn1c(Oc2ccccc2NCc2cccc(Br)c2)cc(=O)n(C)c1=O | -21
COC(=O)c1ccc(CSc2nc3ccc(S(N)(=O)=O)cc3[nH]2)cc1 | 12.4
Cc1cccn2c(=O)nc(SCC(=O)Nc3cccc4ccccc34)nc12 | -5.48
COC(=O)C1=C(c2ccc3ccccc3c2)C[C@@H]2CC[C@H]1N2C | -15.8
COc1ccc(C(C(=O)NC2CCCCC2)N(Cc2cccs2)C(=O)Cc2c[nH]c3ccccc23)cc1OC (centres unmarked) | -19.8
COC(=O)c1ccccc1Oc1c(F)c(F)nc(N2CCOCC2)c1F | 0.824
CCCCNC(=O)NC(C(N)=O)P(=O)(OCC)OCC (centres unmarked) | 7.79
Cn1c(=O)n(Cc2ccco2)c(=N)c2c3c(sc21)CCC3 | -64.8
Cc1nn(-c2ccccc2)c2sc(C(=O)NNC(=O)COc3ccccc3)cc12 | -4.96
CSC(=NNC(=O)c1ccccc1O)SC | -38.6
CCOC(=O)c1c(CC(C)C)csc1NC(=O)CCl | 1.29
COc1ccc(F)c(CN2CCC(n3nccc3NC(=O)CCCc3ccccc3)CC2)c1 | -86.7
c1ccc(-n2c(Sc3cnccn3)nnc2-c2cccs2)cc1 | -33.3
CCc1[nH]nc2c1C(c1ccsc1)C(C#N)=C(N)O2 (centres unmarked) | -13.1
O=C(NCc1ccc2c(c1)OCO2)C1CCN(S(=O)(=O)c2cccc3nsnc23)CC1 | 29.7

SMILES | hERG current change (%, negative = inhibition) at 10uM [%]
COc1ccc([N+](=O)[O-])cc1NC(=O)C(C)Sc1nc(C)c(C)c(C)n1 (centres unmarked) | -44.4
COc1cccc(C2=NOC(C(=O)Nc3c(C)n(C)n(-c4ccccc4)c3=O)C2)c1 (centres unmarked) | 5.34
O=C(Cn1cc(C(F)(F)F)cc(Cl)c1=O)NCCc1ccc(Cl)cc1Cl | -11.3
OCC[C@@H]1C[C@@H](O)[C@H](O)[C@]2(CCCO2)O1 | -9.55
COc1ccc(S(=O)(=O)N(C)CC(=O)NCc2cccnc2)cc1 | -31.8
CC(C)Oc1ccc(C(=O)NCC(=O)N2CCN(S(=O)(=O)/C=C/c3ccccc3)CC2)cc1 | -67.6
CC(C)CNS(=O)(=O)c1ccc(CCC(=O)NCCC2=CCCCC2)cc1 | 11.7
CCOC(=O)C1=C(COC(=O)/C=C/c2cc(Br)ccc2F)NC(=O)NC1C (centres unmarked) | 10.6
O=C(CN1C(=O)NC2(CCCC2)C1=O)OCc1ccccc1 | 11.5
CCNC(=O)OCC12CC3CC(CC(C3)C1)C2 | -5.85
COc1ccc2c(c1)c1ncn(CCCN3CCOCC3)c(=O)c1n2C | -21.4
O=C(OC1CCCCC1=O)c1cc(S(=O)(=O)N2CCOCC2)ccc1F (centres unmarked) | 6.49
CCOc1ccc(Cn2cc(F)c(=O)[nH]c2=O)cc1 | 15
CC1CCCN(c2ccc3nncn3n2)C1 (centres unmarked) | 18.5
Cc1nc(NCCN)c(C#N)c2c1COC(C)(C)C2 | 16
O=C(COc1cccc(NC(=O)c2ccccc2)c1)c1ccccc1 | 6.9
Cc1ccc(-n2c(C)cc(C)c(C#N)c2=O)cc1 | 27.3
O=S(=O)(Nc1ccccc1C(F)(F)F)c1ccc(-c2ccccn2)s1 | 4.58
COc1ccc(-n2c3c(c(=O)[nH]c2=O)C(NC(C)=O)(C(F)(F)F)C(=O)N3)cc1 (centres unmarked) | 10.1
CC(=O)Nc1ccc(S(=O)(=O)NC2CC(=O)N(c3ccc(C)cc3)C2)cc1 (centres unmarked) | 2.22
O=C(Nc1ccc(F)cc1F)C1CCN(c2ncnc3c2sc2cccc(F)c23)CC1 | 3.98
NS(=O)(=O)c1ccc(CCNC(=O)C(=O)NCC2OCCN2S(=O)(=O)c2cc(F)ccc2F)cc1 (centres unmarked) | 11.7
Cc1ccc(NC(=O)N2CCC(NC(=O)c3ccccc3C)CC2)cc1 | -4.77

SMILES | hERG current change (%, negative = inhibition) at 10uM [%]
CC(C)n1c(SCC(=O)N2CCN(C)CC2)nc2c1c(=O)n(C)c(=O)n2C | 2.15
O=C1/C(=C/c2cccc([N+](=O)[O-])c2)N2CCC1CC2 | -23.9
CCC(C)n1c(SCC(=O)NC(=O)c2cccn2C)nc2ccccc2c1=O (centres unmarked) | -17.7
Cc1nn(C)c(C)c1CCC(=O)O | 17
C=CCN(C(=O)c1csnn1)C(C(=O)NC(C)(C)C)c1ccncc1 (centres unmarked) | 20.3
O=C(Cn1nc(C(=O)O)c2ccccc2c1=O)c1c[nH]c2ccccc12 | -34.5
Cn1c(SCC(=O)c2ccc(O)cc2O)nnc1-c1ccccc1 | 16.6
CCOc1ccc(C2CC(=O)NC3=C2C(=O)CCC3)cc1 (centres unmarked) | 8.7
COc1ccc(/C=C(/C#N)C(=O)Nc2cccc(C)c2C)cc1C(=O)O | 11.6
COC(=O)c1cccc(N(C(=O)CNC(=O)c2ccco2)C(C(=O)NC2CCCC2)c2ccco2)c1 (centres unmarked) | 6.89
COc1ccc(-c2ccc(=O)n(Cc3cc(=O)n4ccccc4n3)n2)cc1 | -24.5
COc1ccc(OCC(=O)NCCCN2CCOCC2)cc1 | 10.7
COc1ccc(S(=O)(=O)N2CCCCCC2)cc1NC(=O)CCCOc1ccccc1 | -14.8
Cc1csc(NC(=O)c2cccc(C)c2C)n1 | -1.24
Cc1cnn(Cc2ccccc2)c1N | 23.3
CSc1nnc(-c2ccncc2)n1CCCN1CCCC1=O | 7.34
CC(C)N1CCN(Cc2cccc([N+](=O)[O-])c2)CC1 | -2.13
C/C(CC(=O)Nc1ccc(Cl)cc1Cl)=N\NC(=O)c1cnccn1 | -0.121
NC(=O)[C@@H]1CCCNc2c(F)cc([N+](=O)[O-])cc2C(=O)N[C@@H](CCC(=O)O)C(=O)N[C@@H](CO)C(=O)N1 | 4.79
O=C([O-])c1cc(-c2cccnc2)nc2ccc(Br)cc12.[K+] | 16.2
